Reference: PubChem BioAssay AID1457 (National Center for Advancing Translational Sciences (NCATS), 2008)
Hit rate of the full screen: of about 210,000 compounds, about 730 (0.35%) were called active. Inconclusive means that the source gave no clear call. Such entries were picked first, then a sample of the others. The call rests on the fitted dose curve; in most records, active means well fitted inhibition curve with a large enough effect; inconclusive means small, poorly fitted or top-dose-only effect; inactive means no such curve, though single readings can be large or run the other way. Potencies of inconclusive entries are doubtful fits and often do not repeat.

experiment: qHTS Assay for Identifying the Cell-Membrane Permeable IMPase Inhibitors: Potentiation with Lithium; conditions: CHO-M1 cells, IP1 TR-FRET (IP-One), carbachol + lithium; series mostly up to 59.4 µM; activity, negative = IMPase inhibition: at the top concentration; further: nearly all actives have a fitted effect of over 50% in size;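 on activity, negative = IMPase inhibition: plate controls were basal vehicle for no effect and high inhibitor control for full effect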
Outline: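 IP1 accumulation measured by competitive TR-FRET in lysed CHO-M1 cells after 30 min compound exposure at 37C, with a small lithium addition to potentiate weak responses. Hill-equation AC50 from ratio and donor-channel data.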
Potency means the concentration at half of the fitted maximal effect.

SMILES | activity, negative = IMPase inhibition | Potency
Cc1cccc(N2CCN(C(=O)c3ccc(NS(=O)(=O)c4c(C)noc4C)cc3)CC2)c1C | inactive: 20.4% | 
CSc1cc(-c2ccccc2)n(Cc2ccc(Cl)cc2Cl)c(=O)c1C#N |  | inconclusive: 14.1 µM [inhibitor, single point]
COc1ccc(C(=O)NCCc2cc3ccc(C)c(C)c3[nH]c2=O)cc1OC |  | inconclusive: 28.2 µM [inhibitor, single point]
Cc1sc(NC(=O)c2ccc(OCC(C)C)cc2)c(C(N)=O)c1-c1ccc(Cl)cc1Cl | inactive: -19.2% [at 38.3 µM] | 
Cc1ccc(-c2nn3c(-c4ccco4)nnc3c3ccccc23)cc1S(=O)(=O)NCC1CCCO1 (stereo unspecified) |  | inconclusive: 28.2 µM [inhibitor, single point]
CCOC(=O)c1cc2c(=O)n3ccccc3nc2n(Cc2ccco2)c1=NC(=O)c1ccc(OC)cc1 |  | inconclusive: 20 µM [inhibitor, single point]
CC(=O)c1cnc2cc(-c3ccccc3)nn2c1C |  | inconclusive: 28.2 µM [inhibitor, single point]
O=C(Sc1nnc(-c2ccccc2)o1)N1c2ccccc2Sc2ccccc21 |  | inconclusive: 12.6 µM [inhibitor, partial curve]
S=C(NCCC(c1ccccc1)c1ccccc1)Nc1cccc(Cl)c1 | inactive: 14.1% [at 38.3 µM] | 
O=[N+]([O-])c1ccc(S(=O)(=O)N/N=C/c2ccco2)cc1 |  | inconclusive: 3.16 µM [inhibitor, single point]
O=C1CC(c2cccc(F)c2)c2c(c3ccccc3[nH]c2=O)O1 (stereo unspecified) |  | inconclusive: 22.4 µM [inhibitor, single point]
COc1ccc(S(=O)(=O)N(C)c2ccc(C(=O)NC3CCCC3)cc2)cc1 | inactive: 11.5% | 
Cc1ccc2oc(-c3ccc(NC(=O)c4ccc5c(c4)OCO5)cc3)nc2c1 |  | inconclusive: 11.2 µM [inhibitor, partial curve]
CC(=O)c1ccc(CCCCCCCCCC(=O)O)s1 |  | inconclusive: 12.6 µM [inhibitor, partial curve]
S=c1nc(-c2ccccc2)[nH]c2ccccc12 |  | inconclusive: 12.6 µM [inhibitor, partial curve]
Cc1nnc(NC(=O)c2cccc(S(=O)(=O)N3CCc4ccccc43)c2)s1 | inactive: 22.7% [at 38.3 µM] | 
CCc1nc(-c2cc3ccc(C)cc3[nH]c2=O)no1 |  | inconclusive: 3.55 µM [inhibitor, single point]
COc1cccc(NC(=O)CN(C)C(C)C(=O)Nc2cc([N+](=O)[O-])ccc2Cl)c1 (stereo unspecified) |  | inconclusive: 0.631 µM [inhibitor, full curve]
Cc1ccc2sc(NC(=O)c3ccc(N4C(=O)CCC4=O)cc3)nc2c1C |  | inconclusive: 10 µM [inhibitor, partial curve]
O=C(NC1CC1)C1CCN(C2CCN(C(=O)c3ccc4cccc(F)c4n3)CC2)CC1 | inactive: 6.51% | 
CC(=O)Nc1sc(/C(C#N)=C/c2ccc(Cl)c(Cl)c2)nc1-c1ccc(C)cc1 |  | active: 12.6 µM
Cc1cc(NC(=O)CN2CCN(c3cccc(Cl)c3)CC2)no1 |  | inconclusive: 3.16 µM [inhibitor, single point]
COc1cccc(-n2nnnc2SCC(=O)c2cc(OC)ccc2OC)c1 |  | inconclusive: 2.82 µM [inhibitor, full curve]

SMILES | activity, negative = IMPase inhibition | Potency
CC(=O)C1=C(O)C(=O)N(c2nccs2)C1c1ccc(Br)cc1 (stereo unspecified) |  | inconclusive: 10 µM [inhibitor, single point]
CCOC(=O)CCSc1nc(-c2ccc3c(c2)OCO3)cc(C(F)(F)F)c1C#N |  | inconclusive: 20 µM [inhibitor, single point]
CCCOc1ccc(-c2nn(-c3ccccc3)cc2/C=C2\SC(N)=NC2=O)cc1 |  | inconclusive: 2.51 µM [inhibitor, full curve]
CC1(COc2ccc(C[C@H]3SC(=O)NC3=O)cc2)CCCCC1 | inactive: 35.9% | 
O=C(Nc1c(-c2ccccc2)nc2c(Br)cc(Br)cn12)c1ccco1 |  | active: 10 µM
CC(=O)c1cc2c(cc1N/C(=N/S(=O)(=O)c1ccc(Br)cc1)c1ccccc1)OCO2 |  | inconclusive: 22.4 µM [inhibitor, single point]
CCOC(=O)C1=CN(C)C=C(C(=O)OCC)C1c1ccsc1 |  | inconclusive: 12.6 µM [inhibitor, single point]
O=C(O)c1cc2sccc2s1 |  | inconclusive: 31.6 µM [inhibitor, single point]
Nc1ncnc2nc(N3CCN(CCO)CC3)[nH]c12 | inactive: 18.1% | 
COc1cc([N+](=O)[O-])cc2sc(NC(=O)C3CC3)nc12 |  | active: 22.4 µM
Cc1ccc(-n2nc(C)c3c2OC(N)=C(C#N)C3c2ccncc2)cc1 (stereo unspecified) | inactive: -0.337% [at 38.3 µM] | 
O=C(NCCOc1ccccc1F)c1cc(F)c(F)cc1Cl |  | inconclusive: 28.2 µM [inhibitor, single point]
O=C1Nc2ccccc2S/C1=C\C(=O)N1CCCC1 |  | inconclusive: 5.01 µM [inhibitor, single point]
COCCNC(=O)CSc1ncnc2sc(-c3ccccc3)cc12 |  | inconclusive: 28.2 µM [inhibitor, single point]
Cc1ccc(C2C(C#N)=C(N)SC(N)=C2C#N)cc1 |  | inconclusive: 28.2 µM [inhibitor, single point]
O=C(CN1CCN(c2ccc(F)cc2)CC1)Nc1nnc(-c2ccccc2)s1 |  | active: 11.2 µM
COC(=O)c1c(NC(=O)Nc2ccc(Cl)cc2)sc(C)c1C |  | inconclusive: 28.2 µM [inhibitor, single point]
COCCCn1c(-c2ccsc2)nc2c1c(=O)[nH]c(=O)n2Cc1ccccc1 |  | inconclusive: 28.2 µM [inhibitor, single point]
CCC(C)=O | inactive: 4.57% | 
Cc1ccccc1OCC(=O)N(Cc1ccc(N(C)C)cc1)C1CCS(=O)(=O)C1 (stereo unspecified) | inactive: -0.583% [at 38.3 µM] | 
O=C(C[n+]1ccc2ccccc2c1)c1cccc2ccccc12 | inactive: 14.2% | 
CCOc1cccc(-c2nnc(SCC(=O)Nc3cc(OC)cc(OC)c3)n2N)c1 |  | active: 25.1 µM
CCC(C)[C@H](NC(=O)NC1CCN(Cc2ccccc2)CC1)C(=O)OC (stereo partly specified) |  | inconclusive: 10 µM [inhibitor, partial curve, poor fit]
